Positions count from the first letter of the chain named.
B1: 277-gr (IgG1) (antibody)
heavy: QVQLVQSGAEVKKPGASVKVSCKASGYTFTGYWMHWVRQAPGQGLEWMGYINPSTDYTEYNQKFKDRVTMTRDTSTSTVYMELSSLRSEDTAVYYCARSRTGNYWGQGTLVTVSSASTKGPSVFPLAPSSKSTSGGTAALGCLVKDYFPEPVTVSWNSGALTSGVHTFPAVLQSSGLYSLSSVVTVPSSSLGTQTYICNVNHKPSNTKVDKRV[human IgG1 Fc not printed]
light: DIVMTQSPDSLAVSLGERATINCKSSQSLLYSSNQKNYLAWYQQKPGQPPKLLIYWASTRESGVPDRFSGSGSGTDFTLTISSLQAEDVAVYYCQQYYSYPYTFGQGTKLEIKRTVAAPSVFIFPPSDEQLKSGTASVVCLLNNFYPREAKVQWKVDNALQSGNSQESVTEQDSKDSTYSLSSTLTLSKADYEKHKVYACEVTHQGLSSPVTKSFNRGEC
B2: 277-64 (IgG1-KO) (antibody)
heavy: QVQLVQSGAEVKKPGASVKVSCKASGYTFTGYWMHWVRQAPGQGLEWIGYINPSTDYTEYNQKFKDRVTMTRDTSTSTVYMELSSLRSEDTAVYYCARSRTGNYWGQGTTVTVSSASTKGPSVFPLAPSSKSTSGGTAALGCLVKDYFPEPVTVSWNSGALTSGVHTFPAVLQSSGLYSLSSVVTVPSSSLGTQTYICNVNHKPSNTKVDKRV[human IgG1 Fc with changes not printed]
light: B1 light with N22S
B3: 277-gr (IgG1-KO) (antibody)
heavy: QVQLVQSGAEVKKPGASVKVSCKASGYTFTGYWMHWVRQAPGQGLEWMGYINPSTDYTEYNQKFKDRVTMTRDTSTSTVYMELSSLRSEDTAVYYCARSRTGNYWGQGTLVTVSSASTKGPSVFPLAPSSKSTSGGTAALGCLVKDYFPEPVTVSWNSGALTSGVHTFPAVLQSSGLYSLSSVVTVPSSSLGTQTYICNVNHKPSNTKVDKRV[human IgG1 Fc with changes not printed]
light: B1 light
B4: 277-64 (IgG1) (antibody)
heavy: B1 heavy with M48I, L110T
light: B1 light with N22S

target: human TrkB receptor on cells (human, UniProt Q16620 32-822); assay: cell-based or functional assay
Chain of UniProt Q16620 (Q16620 32-822): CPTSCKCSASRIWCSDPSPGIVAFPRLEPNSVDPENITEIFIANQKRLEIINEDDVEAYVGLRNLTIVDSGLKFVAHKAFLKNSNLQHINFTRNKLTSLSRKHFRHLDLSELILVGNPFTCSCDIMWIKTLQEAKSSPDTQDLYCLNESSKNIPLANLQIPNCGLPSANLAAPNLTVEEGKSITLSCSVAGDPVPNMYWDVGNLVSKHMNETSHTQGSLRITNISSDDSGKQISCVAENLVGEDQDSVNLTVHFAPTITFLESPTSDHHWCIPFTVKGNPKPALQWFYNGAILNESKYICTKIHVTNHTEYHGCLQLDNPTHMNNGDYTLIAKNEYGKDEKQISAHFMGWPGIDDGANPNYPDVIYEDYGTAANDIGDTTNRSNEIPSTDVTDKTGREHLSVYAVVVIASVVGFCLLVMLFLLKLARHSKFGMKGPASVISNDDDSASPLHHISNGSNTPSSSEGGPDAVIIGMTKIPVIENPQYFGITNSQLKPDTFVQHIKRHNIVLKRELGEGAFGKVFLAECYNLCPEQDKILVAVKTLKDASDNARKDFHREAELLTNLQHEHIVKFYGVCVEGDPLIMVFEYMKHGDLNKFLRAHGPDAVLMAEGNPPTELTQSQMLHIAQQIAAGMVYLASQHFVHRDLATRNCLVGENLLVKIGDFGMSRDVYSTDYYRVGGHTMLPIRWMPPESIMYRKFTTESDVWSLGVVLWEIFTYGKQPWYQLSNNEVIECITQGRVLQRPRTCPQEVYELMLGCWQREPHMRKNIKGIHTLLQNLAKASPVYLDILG

| Binder | AKT 1/2/3-P (T308), differentiated SH-SY5Y cells, EC50 [pM] | TrkB-P (TrkB phosphorylation, AlphaLISA, differentiated SH-SY5Y cells), EC50 [pM] |
| --- | --- | --- |
| B1 | 23 | 39 |
| B2 | 22 | 44 |
| B3 | 39 | 46 |
| B4 | 25 | 53 |

From patent publication US20180355046A1 (Boehringer Ingelheim, published 2018)
